Measurements from PMC8713996, “An anti-tuberculosis compound screen using a zebrafish infection model identifies an aspartyl-tRNA synthetase inhibitor” (Disease Models & Mechanisms, 2021).

Tested on: S. pneumoniae
Conditions: Table S1; strain used for zebrafish infection (D39V)

Substance: penicillin
- MIC90 S. pneumoniae: 0.04 µM
